This note sets out measurements from PubChem BioAssay AID1508624 (National Center for Advancing Translational Sciences (NCATS), 2021).

Each structure is given as a SMILES string. The whole screen tested about 48,000 compounds, of which about 120 (0.25%) were called active. Another 4% or so got no clear call; they are omitted. The call rests on the fitted dose curve; in most records, active means well fitted activation curve with a large enough effect; inconclusive means small, poorly fitted or top-dose-only effect, or another doubt; inactive means no such curve, though single readings can be large or run the other way. This is one part of the list.
Potency means the concentration at half of the fitted maximal effect.

This assay is described as follows: Primary qHTS for Identification of Small Molecule Activators of Huntingtin-Antisense Promoter Activity. Further: nearly all actives have a fitted effect of over 55% in size. The conditions noted are these: HEK293 HTT-AS promoter firefly luciferase reporter (activity 0% = vehicle and -100% = no light), 24 h; series mostly up to 57.5 µM; activity change, positive = activation: at the top concentration. The gist of the method: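 Luminescence was read after Dual-Glo reagent and a 10 min room-temperature incubation. Values were normalized to vehicle (0% activity) and zero RLU (-100% activity). Reporter HEK293 cells had been exposed to compounds (up to 57.5 uM final) for 24 h.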
On to `COc1ccc(CCC(=O)NC2CC(=O)N(c3ccc(C)c(C)c3)C2)cc1` (configuration not stated), for which the “activity change, positive = activation” value was inactive: -7.77%.
Same read-out and setting: in the case of `Cc1ccc(NC(=O)c2sc3nc(-c4ccc(F)cc4)cn3c2C)c(C)c1` it was inactive: -11.3%.
Consider `O=C(NCc1ccc(Cl)cc1)C(=O)NCC(c1ccco1)S(=O)(=O)c1cccs1` (configuration not stated), for which the “activity change, positive = activation” value was inactive: -13.3%.
On the same count and under the same terms, in the case of `CCCCNC(=O)c1ccc2c(=O)n(-c3ccccc3)c(=O)[nH]c2c1` it was inactive: -14.8%.
Same read-out and setting: in the case of `CCc1ccc(NC(=O)C2CCCN(S(=O)(=O)c3c(C)[nH]c(=O)[nH]c3=O)C2)cc1` (configuration not stated) it was inactive: -12.6%.
With `COC(=O)c1ccc(Cn2nc(-c3ccc(C)c(C)c3)ccc2=O)cc1`, the “activity change, positive = activation” value was inactive: -15.1%.
For `CC(C)c1ccc(NS(=O)(=O)c2ccc3[nH]c(=O)ccc3c2)cc1`, the “activity change, positive = activation” value was inactive: -27.5%.
Turning to `O=C(CCS(=O)(=O)c1cc2c3c(c1)CCN3C(=O)CC2)NCc1ccc(F)cc1`, the “activity change, positive = activation” value was inactive: -7.22%.
The same measure, in the same setting: for `COCCc1nn2c(=O)cc(COC(=O)COc3ccccc3C)nc2s1` the value was inactive: -0.165%; for `COc1ccc(Cl)cc1Nc1ncnc2c1nc1n2CCCC1`, inactive: -1.06%.
For the compound `O=C(Nc1noc2ccccc12)c1cccc(F)c1`, the Potency was active: 2 µM.
On to `CC(C)c1ccc(NC(=O)C2CCCN(S(=O)(=O)c3cccc4nonc34)C2)cc1` (configuration not stated), for which the “activity change, positive = activation” value was inactive: -8.34%.
Same read-out and setting: for `O=C1CC(c2ccccc2)Cc2[nH]c(=O)c(-c3nc(-c4cccc(Cl)c4)cs3)cc21` (configuration not stated) the value was inactive: -23.4%; for `CCOC(=O)Cn1c(=O)oc2cc(S(=O)(=O)NCc3ccc(F)cc3)ccc21`, inactive: -19.1%; for `COc1ccc(CNC(=O)C(=O)NCC(c2ccc3c(c2)OCO3)N2CCOCC2)cc1` (configuration not stated), inactive: -11.1%.
The same measure, in the same setting: for `CCCCC(CC)COC(=O)/C=C/c1ccc(OC)cc1` (configuration not stated) the value was inactive: 1.1%; for `Cc1ccc(Cl)cc1N1CCN(C(c2ccc(F)cc2)c2nnc(-c3ccccc3)o2)CC1` (configuration not stated), inactive: 3.24%; for `COc1ccc(-c2cc(C(=O)N3CCN(c4ccccc4OC)CC3)c3cc(C(C)C)ccc3n2)cc1`, inactive: -22.6%.
On the same count and under the same terms, in the case of `COC(=O)c1sccc1S(=O)(=O)N1CCN(c2cccc(C)c2C)CC1` it was inactive: -32.8%; in that of `CCN(CC)CCc1nc(-c2ccccc2)no1`, inactive: 3.2%; in that of `Cc1noc(/C=C/N(C)C)c1S(=O)(=O)N1CCCC(C(=O)Nc2cccc(F)c2)C1` (configuration not stated), inactive: -26.4%.
For the compound `O=C(NCC1(c2ccccc2)CCCC1)C(=O)Nc1cccc(C(F)(F)F)c1`, the “activity change, positive = activation” value was inactive: 2.42%.
The same measure, in the same setting: for `COc1ccc2nc(NS(=O)(=O)c3ccc(C)cc3)c(Nc3cc(Cl)ccc3OC)nc2c1` the value was inactive: -29.3%; for `CCOc1ccc(CCNC(=O)CSc2cc(=O)n(C)c3ccccc23)cc1OCC`, inactive: -4.57%.
The same measure, in the same setting: for `COc1ccc(OC)c(CCNC(=O)CCn2c(=O)c3cccn3c3cccnc32)c1` the value was inactive: -19.4%; for `CCCCN(c1ccccc1)c1ncnc2c1cnn2-c1ccc(Cl)cc1`, inactive: -51.3%; for `CC(C)Cn1c(=O)c2ccccc2n2c(-c3ccc(Br)cc3)nnc12`, inactive: -16.3%.
Same read-out and setting: in the case of `Cc1ccc(CN(Cc2ccco2)c2cnc(S(C)(=O)=O)nc2C(=O)Nc2ccc(Br)cc2)o1` it was inactive: -33.3%.
Take `Cc1cc(C)cc(C(=O)Nc2cc(C(F)(F)F)ccc2N2CCN(c3ccccc3)CC2)c1`: the “activity change, positive = activation” value was inactive: -1.65%.
On the same count and under the same terms, for `Cc1ccccc1NC(=O)Cn1c(=O)n(Cc2ccc3c(c2)OCO3)c(=O)c2oc3ccccc3c21` the value was inactive: -10.1%; for `Cc1ccc(-c2cn3cccc(C)c3n2)cc1NS(=O)(=O)c1ccccc1`, inactive: 6.47%; for `O=C(c1ccccc1)N1CCc2cc(CNS(=O)(=O)c3ccccc3Cl)ccc21`, inactive: -27.7%.
Take `CCCCc1nc(Cl)c(CO)n1Cc1ccc(-c2ccccc2-c2nn[nH]n2)cc1`: the “activity change, positive = activation” value is inactive: 0.558%.
With `Cc1cccc(N(CC(=O)NC(C)c2ccccc2)S(=O)(=O)c2ccccc2)c1C` (configuration not stated), the “activity change, positive = activation” value was inactive: -33.5%.
Same read-out and setting: in the case of `Cc1ccc(-c2nn3c(C)nnc3c3ccccc23)cc1S(=O)(=O)NCCO` it was inactive: -9.12%; in that of `CC(=O)Nc1ccc(S(=O)(=O)NCC2CCC(C(=O)NCCCOC(C)C)CC2)cc1` (configuration not stated), inactive: -1.63%; in that of `CCOc1cc(C(=O)OCc2cc(=O)n3c(C)csc3n2)cc(OCC)c1OCC`, inactive: -6.82%.
Turning to `Cc1ccc(CNC(=O)c2cn(C)c3ccc(S(=O)(=O)N(C)C4CCCCC4)cc3c2=O)cc1`, the “activity change, positive = activation” value is inactive: -4.61%.
The same measure, in the same setting: for `CCc1ccc(-n2nc3ccc(NC(=O)c4cc5ccccc5o4)cc3n2)cc1` the value was inactive: 6.52%.
Same read-out and setting: in the case of `Cc1ccc(CNC(=O)c2nc(SCc3cccc(C)c3)ncc2Cl)cc1` it was inactive: -24.8%; in that of `CC(C=CC(=O)NO)=C[C@@H](C)C(=O)c1ccc(N(C)C)cc1`, inactive: -30.5%; in that of `CCOc1ccc(-c2cc3c(=O)n(Cc4nc(-c5cccc(OC)c5OC)oc4C)ccn3n2)cc1Cl`, inactive: -9.49%.
The same measure, in the same setting: in the case of `CCN(Cc1ccc(OC)cc1)c1ccc(-c2nc(-c3ccncc3)no2)cc1[N+](=O)[O-]` it was inactive: -20.4%; in that of `CCC(=O)N1CCc2cc(S(=O)(=O)CCC(=O)N3CCN(c4cccc(C)c4)C(C)C3)ccc21` (configuration not stated), inactive: -21.4%.
Take `Cc1cc(C)c(Cn2c3ccccc3c3cnn(CC(=O)NCCCc4ccccc4)c(=O)c32)c(C)c1`: the “activity change, positive = activation” value was inactive: -19.1%.
As to `O=C(NCCc1ccccc1)c1ccc(Cn2c(SCc3ccc(F)cc3)nc3cccnc32)cc1`, the “activity change, positive = activation” value was inactive: 3.61%.
Same read-out and setting: in the case of `O=C(NCc1cccc(Cl)c1)c1cccn1-c1nnc(N2CCCC2)s1` it was inactive: -5.02%.
